# According to PubChem BioAssay AID463173 (ICCB-Longwood Screening Facility, Harvard Medical School, 2010):
# About 1,700 (3.3%) of roughly 52,000 compounds were called active. No stated cut-off is given here; in the data, active means survival mostly below about 52% (no sharp cut-off); inactive means mostly above about 56%. Some of the results follow.
# Test system: Wild type
# Assay: S. aureus survival, RN4220 and DeltatarO strains – OD600, teichoic acid synthesis inhibitors, primary screen (AID 463173)
# Settings: S. aureus RN4220 wild type/DeltatarO growth, OD600, 18 h, stronger effect = lower value, screened at 18.75 µg/mL (by protocol)
row,Compound,survival
1,CCc1ccc(CN(C(=O)c2cc3ccccc3oc2=O)C2CCS(=O)(=O)C2)cc1 (centres undefined),inactive: 84%
2,CC(C)(C)NC(=O)COc1ccc(CNc2ccc3c(c2)OCCO3)cc1,inactive: 98%
3,CCc1c(C)sc2c1CCN(Cc1ccc(F)cc1)C2c1ccccc1 (centres undefined),inactive: 71%
4,CCCCNC(=O)CCCn1c(=O)c2ccccc2n(Cc2ccccc2C)c1=O,inactive: 84%
5,COc1ccc(CNC(=O)COCc2cc(-c3cccs3)on2)cc1OC,inactive: 80%
6,CCn1cc(C(=O)NCCc2ccccc2)c(=O)c2cc(S(=O)(=O)N(C)C3CCCCC3)ccc21,inactive: 89%
7,CC(=O)Nc1cccc(C(=O)NCc2ccc3c(c2)CCN3C(C)=O)c1,inactive: 72%
8,CC(=O)c1[nH]c(C)c(C(=O)NCCc2ccc(C)cc2)c1C,inactive: 88%
9,COc1ccc(-c2noc(-c3ccc(NCc4ccccc4OC)c([N+](=O)[O-])c3)n2)cc1,inactive: 83%
10,Cc1ccc(C2=Nc3ccccc3N(CC(=O)Nc3cccc(F)c3)C(=O)C2)cc1C,inactive: 127%
11,O=c1oc2c3c(ccc2c2ccccc12)OCN(Cc1cccc(Cl)c1)C3,inactive: 71%
12,CN(C)CCCNc1oc(/C=C/c2ccc(F)cc2)nc1C#N,inactive: 89%
13,Cc1ccc(NC(=O)CCCn2c(=O)c3cccn3c3cccnc32)c(Cl)c1,inactive: 88%
14,Cc1cc(C)c(NC(=O)CSc2nccn2Cc2ccco2)c(C)c1,inactive: 71%
15,O=C(CN1CCN(Cc2ccc(Cl)cc2)C1=O)NCc1ccc(F)cc1,inactive: 121%
16,CCOc1ccccc1N(C)C(=O)C1CCCN(c2ncnc3onc(-c4ccc(F)cc4)c23)C1 (centres undefined),inactive: 64%
17,Cc1c(CCNC(=O)Cc2ccccc2)sc2nc(-c3ccc(F)cc3)nn12,inactive: 71%
18,O=C(c1ccc2c(c1)OCCO2)N(Cc1cccnc1)c1nc2ccc(F)cc2s1,inactive: 69%
19,NC1=NC(=O)CC(C(=O)Nc2ccccc2)S1 (centres undefined),inactive: 112%
20,CCOc1ccc(CNC(=O)c2cc3c(=O)n(C)c4ccccc4c3s2)cc1,inactive: 84%
21,Cc1ccc(NC(=O)Cn2c(=O)n(Cc3ccco3)c(=O)c3ccccc32)cc1,inactive: 93%
22,CCN(CC)CCCNC(=O)c1cc(-c2ccc(OC)c(OC)c2)on1,inactive: 73%
23,CC1CN(C(=O)N2CCC(C(=O)NC3CCCCCC3)CC2)c2cc(Cl)ccc2O1 (centres undefined),inactive: 85%

row,Compound,survival
1,Cc1cc(C)n2nc(CNS(=O)(=O)c3ccc(Cl)cc3)nc2n1,inactive: 80%
2,Cc1ccc(NC(=O)C2CCCN2S(=O)(=O)c2cccc3cccnc23)cc1 (centres undefined),inactive: 73%
3,COc1ccc(-c2ccnc3c(-c4ccc(F)cc4)c(C)nn23)cc1OC,inactive: 79%
4,COc1cc(C(=O)NC2CC(=O)N(c3cccc(F)c3)C2)cc(OC)c1OC (centres undefined),inactive: 77%
5,O=C(Cn1cc(SCc2cccc(Cl)c2)c2ccccc21)N1CCOCC1,inactive: 80%
6,O=c1[nH]c(SCc2ccc(F)cc2)nc2c1CCCC2,inactive: 97%
7,CCn1c(SCCN2CCCC2)nnc1C1CCCN(S(C)(=O)=O)C1 (centres undefined),inactive: 127%
8,COc1ccc(CNC(=O)C2CCCN(S(=O)(=O)c3ccc4c(c3)CCCN4C(C)=O)C2)cc1 (centres undefined),inactive: 68%
9,CCc1nnc2c(NCc3ccc(F)cc3)nc3ccccc3n12,inactive: 126%
10,O=c1/c(=C/c2ccc(Br)cc2)sc2nncn12,inactive: 125%
11,COc1ccc(NC(=O)c2ccco2)cc1NC(=O)COc1cc(C)cc(C)c1,inactive: 129%
12,CCC(=O)N1CCc2cc(Br)cc(S(=O)(=O)N3CCN(c4ccccc4)CC3)c21,inactive: 84%
13,CCOc1ccc2nc(N3CCCC(C(=O)Nc4ccc(Br)c(C)c4)C3)sc2c1 (centres undefined),inactive: 85%
14,COc1ccccc1N1CCN(S(=O)(=O)c2ccc(F)c(C(=O)Nc3ccc(C)c(F)c3)c2)CC1,inactive: 74%
15,COc1ccc(CCNC(=O)c2cc(Sc3cccc(Cl)c3)nc3ccccc23)cc1OC,inactive: 69%
16,COc1ccc2c(c1)CC(C(=O)N1CCC(C(N)=O)CC1)CO2 (centres undefined),inactive: 70%
17,COc1ccc2c(c1)NC(c1ccc(OCC(C)C)cc1)=NC(c1ccncc1)=N2,inactive: 129%
18,CCOc1ccc(-c2n[nH]c3c2C(c2ccccc2OC)N(c2ccc(Br)cc2)C3=O)cc1 (centres undefined),inactive: 98%
19,COc1ccccc1N1CCN(C(=O)c2oc3ccccc3c2NC(=O)C(C)Oc2ccccc2)CC1 (centres undefined),inactive: 73%
20,Cc1ccc(C(C)C)c(OCCn2cc(C(=O)c3ccco3)c3ccccc32)c1,inactive: 30%
21,O=C(Nc1cc(Cl)cc(Cl)c1)c1ccc(F)c(S(=O)(=O)N2CCCCCC2)c1,inactive: 146%
22,CN1C(C(=O)Nc2ccc(OC(F)(F)F)cc2)=CC(c2ccc3c(c2)OCO3)=NS1(=O)=O,inactive: 86%
23,O=C(Cn1cccc1C(=O)c1ccccc1)NCc1ccc(F)cc1,inactive: 91%

row,Compound,survival
1,COc1cc2c(=O)n(Cc3ccccc3)c(=O)n(CC(=O)Nc3cc(C(F)(F)F)ccc3Cl)c2cc1OC,inactive: 136%
2,CCN(CC)c1ccc(NS(=O)(=O)c2ccc3c(c2)CCCN3C(C)=O)c(C)c1,inactive: 71%
3,COC(=O)c1cc2oc(C)cc2n1Cc1c(C)cc(C)cc1C,inactive: 33%
4,CC(C)c1cc(N)cc(C(C)C)c1O,inactive: 112%
5,COc1cc2nc(SCC(=O)Nc3ccc(F)cc3)n3nc(CCn4c(C)nc5ccccc54)nc3c2cc1OC,inactive: 141%
6,COc1ccc(C2c3c(n(C)c4ccccc34)C(=O)N2CC(=O)Nc2ccc(Cl)cc2)cc1 (centres undefined),inactive: 83%
7,CCc1ccc(N2CCn3c2nc2c3c(=O)n(Cc3cccc(C)c3)c(=O)n2C)cc1,inactive: 82%
8,CCOC(=O)c1c(C)oc2ncnc(NCCc3ccccc3)c12,inactive: 83%
9,Cc1ccc(NC(=O)C(=O)NCC(c2ccc3c(c2)OCO3)N2CCOCC2)c(C)c1 (centres undefined),inactive: 71%
10,O=C(CSc1ncc2c(n1)-c1ccccc1N(Cc1ccc(F)cc1)S2(=O)=O)c1ccc(Br)cc1,inactive: 72%
11,CCCN1CCN(CCNC(=O)Nc2cc(OC)cc(OC)c2)CC1,inactive: 84%
12,Cc1ccc(OC(=O)c2snnc2C)cc1C,inactive: 117%
13,Cc1cccc(NC(=O)CSc2nc3ccc(NC(=O)c4cccs4)cc3s2)c1,inactive: 69%
14,CC(C)c1ccc(OCc2cc(=O)n3c4c(sc3n2)CCCC4)cc1,inactive: 75%
15,O=C(CSc1nc(-c2ccccc2)cc(=O)[nH]1)c1ccccc1,inactive: 119%
16,COC(=O)c1ccccc1NC(=O)CSc1nnnn1-c1ccc2c(c1)OCO2,inactive: 112%
17,CCc1ccc(Nc2cc(C)nc3nc(Cc4ccc(Cl)cc4)nn23)cc1,inactive: 109%
18,COc1ccc(OCC(=O)Nc2cc(-c3cccc(Cl)c3)nn2-c2ccccc2)cc1,inactive: 75%
19,O=C(NC1CCCCC1)c1ccc2c(c1)sc1nc(-c3ccccc3)cn12,inactive: 83%
20,N#Cc1ccc(C(=O)N2CCN(c3nc4ccc(F)cc4s3)CC2)cc1,inactive: 75%
21,COc1ccccc1NC(=O)CN(c1ccc(C(C)C)cc1)S(=O)(=O)c1c(C)noc1C,inactive: 88%
22,CCOC(=O)c1ccc(CSc2nnc3cc(C)c4ccccc4n23)cc1,inactive: 108%
23,COc1cc2c(cc1OC)C(c1ccc(Cl)cc1)N(c1ccc(C)c(F)c1)C(=O)C2 (centres undefined),inactive: 53%

row,Compound,survival
1,COc1ccc(-c2oc3ncn4nc(-c5ccc(Cl)cc5)nc4c3c2-c2ccc(OC)cc2)cc1,inactive: 69%
2,CCN(CC)CCN(C(=O)c1ccco1)c1nc2c(C)cccc2s1,inactive: 98%
3,CCOc1cccc(C(=O)Nc2nnc(S(=O)(=O)N(C)c3ccc(C)cc3)s2)c1,inactive: 76%
4,COc1ccc(NC(=O)CC2C(=O)N(c3ccccc3)C(=O)N2CCC2=CCCCC2)cc1 (centres undefined),inactive: 71%
5,Cc1ccc2c(c1)c(=O)c(C(=O)c1ccccc1)cn2Cc1ccccc1F,inactive: 78%
6,COc1ccc(S(=O)(=O)N(CC(=O)Nc2ccc(OC)cc2OC)c2ccc(Cl)cc2)cc1,inactive: 131%
7,COc1cc(NC(=O)C2CCN(S(=O)(=O)c3c(C)noc3/C=C/c3cccs3)CC2)cc(OC)c1,inactive: 78%
8,CCN1C(=O)c2ccccc2S(=O)c2ccc(C(=O)NCc3ccc(C)cc3)cc21 (centres undefined),inactive: 85%
9,Cc1c(CNC2CCC(C)CC2)c(C(=O)O)c(C)n1Cc1ccccc1F (centres undefined),inactive: 106%
10,COc1ccc(-c2nc(SCC(=O)c3ccc(Br)cc3)n[nH]2)cc1,inactive: 150%
11,CCOc1ccccc1C1C(C(N)=O)=C(C)Nc2nc(-c3ccccc3Cl)nn21 (centres undefined),inactive: 130%
12,Cc1cccc(N2CC(c3nc4ccc(C)cc4[nH]3)CC2=O)c1 (centres undefined),inactive: 97%
13,CCN1C(=O)C2(C(C#N)=C(N)SC(N)=C2C#N)c2ccccc21,inactive: 64%
14,CCC1CN(C(=O)Nc2ccccc2C(F)(F)F)c2ccccc2O1 (centres undefined),inactive: 87%
15,COc1ccc(/C=C(/C#N)c2nc(-c3cc4ccccc4oc3=O)cs2)cc1,inactive: 91%
16,O=C(NC1(C(F)(F)F)N=C(c2ccccc2)N(C2CCCCC2)C1=O)c1ccc(F)cc1 (centres undefined),inactive: 79%
17,Cc1cc(C)n(CCc2nc3c4ccccc4nc(SCc4ccc(Cl)cc4)n3n2)n1,inactive: 74%
18,CCOc1ccc(NC(=O)CC2C(=O)N(c3ccc(C)cc3)C(=O)N2C2CCCCC2)cc1 (centres undefined),inactive: 70%
19,Cn1ccc2cc(S(=O)(=O)N3CCCC(C(=O)NCc4ccc(F)cc4)C3)ccc21 (centres undefined),inactive: 45%
20,COC(=O)c1ccc(C2C=C(c3ccc(Cl)cc3)Nc3nc4ccccc4n32)cc1 (centres undefined),inactive: 117%
